Source: patent US20160084825A1
Not every entry of the source has a single result; some have several. This list holds those alone. An entry can have further records. Values that stand side by side appear to be repeats on other runs, samples or individuals.

Target: LFA-1 disulfide mutant #8 (αL Q1063C / β2 N678C) on 293T cells (UniProt P20701)
Assay: flow cytometry (FACS), LFA-1 on transfected 293T cells

Chain of UniProt P20701 (P20701 26-1170 Q1088C, chain 1 of 2): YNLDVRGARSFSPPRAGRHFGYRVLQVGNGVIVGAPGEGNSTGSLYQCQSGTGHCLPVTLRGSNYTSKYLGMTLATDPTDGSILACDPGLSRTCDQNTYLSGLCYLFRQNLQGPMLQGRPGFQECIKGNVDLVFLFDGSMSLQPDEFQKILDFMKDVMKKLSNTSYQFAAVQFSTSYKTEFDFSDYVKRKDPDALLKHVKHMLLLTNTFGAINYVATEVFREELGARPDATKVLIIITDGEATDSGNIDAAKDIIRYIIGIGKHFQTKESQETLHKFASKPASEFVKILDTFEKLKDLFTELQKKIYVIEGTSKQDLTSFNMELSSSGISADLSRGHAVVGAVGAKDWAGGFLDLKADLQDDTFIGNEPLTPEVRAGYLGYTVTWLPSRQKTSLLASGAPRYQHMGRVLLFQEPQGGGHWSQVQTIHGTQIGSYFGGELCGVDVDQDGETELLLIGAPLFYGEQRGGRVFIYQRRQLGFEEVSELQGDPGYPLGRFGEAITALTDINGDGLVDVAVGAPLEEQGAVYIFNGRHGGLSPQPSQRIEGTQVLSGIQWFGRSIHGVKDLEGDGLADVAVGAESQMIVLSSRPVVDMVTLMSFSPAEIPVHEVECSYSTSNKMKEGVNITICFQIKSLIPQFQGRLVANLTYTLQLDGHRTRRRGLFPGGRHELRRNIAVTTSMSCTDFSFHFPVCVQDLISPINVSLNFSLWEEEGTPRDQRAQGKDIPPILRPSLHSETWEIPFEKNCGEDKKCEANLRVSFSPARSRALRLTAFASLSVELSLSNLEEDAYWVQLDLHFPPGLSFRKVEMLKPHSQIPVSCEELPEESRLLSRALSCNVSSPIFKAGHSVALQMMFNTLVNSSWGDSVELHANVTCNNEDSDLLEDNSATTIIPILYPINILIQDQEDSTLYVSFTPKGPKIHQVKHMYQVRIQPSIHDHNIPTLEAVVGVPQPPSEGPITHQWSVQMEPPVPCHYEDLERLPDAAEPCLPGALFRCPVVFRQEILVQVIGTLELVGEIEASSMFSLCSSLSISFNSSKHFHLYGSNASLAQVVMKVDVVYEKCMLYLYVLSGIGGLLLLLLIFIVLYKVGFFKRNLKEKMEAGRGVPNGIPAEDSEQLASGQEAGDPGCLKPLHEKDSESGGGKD
Chain of UniProt P20701 (P05107 23-769 N700C, chain 2 of 2, further chain): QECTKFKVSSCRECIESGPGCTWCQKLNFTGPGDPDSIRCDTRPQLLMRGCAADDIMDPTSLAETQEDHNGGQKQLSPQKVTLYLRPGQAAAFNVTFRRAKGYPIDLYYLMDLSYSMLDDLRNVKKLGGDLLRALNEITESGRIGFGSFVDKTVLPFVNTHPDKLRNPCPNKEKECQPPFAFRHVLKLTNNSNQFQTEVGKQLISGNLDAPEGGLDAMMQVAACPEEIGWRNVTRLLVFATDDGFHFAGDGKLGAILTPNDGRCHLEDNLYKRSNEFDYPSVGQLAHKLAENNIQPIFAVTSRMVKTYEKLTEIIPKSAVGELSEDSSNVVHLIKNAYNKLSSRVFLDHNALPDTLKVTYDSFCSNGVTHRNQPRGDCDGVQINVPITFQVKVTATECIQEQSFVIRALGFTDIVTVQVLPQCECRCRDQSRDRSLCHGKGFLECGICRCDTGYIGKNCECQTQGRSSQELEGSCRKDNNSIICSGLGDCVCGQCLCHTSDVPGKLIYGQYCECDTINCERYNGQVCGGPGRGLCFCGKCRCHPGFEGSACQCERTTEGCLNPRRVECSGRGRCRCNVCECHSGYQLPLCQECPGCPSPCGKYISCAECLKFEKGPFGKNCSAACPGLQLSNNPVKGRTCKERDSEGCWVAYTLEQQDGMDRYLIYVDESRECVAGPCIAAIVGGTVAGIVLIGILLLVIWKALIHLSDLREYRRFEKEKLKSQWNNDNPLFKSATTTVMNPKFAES

KIM127 (antibody) was tested, and the Mean value normalized with expression level (MHM24) was 0.021 and 0.082 [columns of one line].
